Laboratory results reported in PubChem BioAssay AID588579 (National Center for Advancing Translational Sciences (NCATS), 2011).
Values joined by “and” are separate entries in the source; they are usually repeats but may differ in a detail not shown here. Equal values may be shown once. In all, about 400,000 compounds went through this assay and about 2,200 (0.55%) were called active. The inconclusive results got no clear call from the source; some entries with a clear call stand among them for comparison. Calls follow the shape of the dose curve; as a rule, active = well fitted inhibition curve with a large enough effect; inconclusive = small, poorly fitted or top-dose-only effect, or another doubt; inactive = no such curve, though single readings can be large or run the other way. Potencies of inconclusive entries are doubtful fits and often do not repeat.

molecular target: DNA polymerase kappa (Homo sapiens) (UniProt Q9UBT6); test: qHTS for Inhibitors of Polymerase Kappa; settings: purified Pol kappa, fluorescent DNA synthesis assay, 10 min; series mostly up to 107 µM; activity, negative = inhibition: at the top concentration
Chain of UniProt Q9UBT6 (Q9UBT6 whole entry, looked up): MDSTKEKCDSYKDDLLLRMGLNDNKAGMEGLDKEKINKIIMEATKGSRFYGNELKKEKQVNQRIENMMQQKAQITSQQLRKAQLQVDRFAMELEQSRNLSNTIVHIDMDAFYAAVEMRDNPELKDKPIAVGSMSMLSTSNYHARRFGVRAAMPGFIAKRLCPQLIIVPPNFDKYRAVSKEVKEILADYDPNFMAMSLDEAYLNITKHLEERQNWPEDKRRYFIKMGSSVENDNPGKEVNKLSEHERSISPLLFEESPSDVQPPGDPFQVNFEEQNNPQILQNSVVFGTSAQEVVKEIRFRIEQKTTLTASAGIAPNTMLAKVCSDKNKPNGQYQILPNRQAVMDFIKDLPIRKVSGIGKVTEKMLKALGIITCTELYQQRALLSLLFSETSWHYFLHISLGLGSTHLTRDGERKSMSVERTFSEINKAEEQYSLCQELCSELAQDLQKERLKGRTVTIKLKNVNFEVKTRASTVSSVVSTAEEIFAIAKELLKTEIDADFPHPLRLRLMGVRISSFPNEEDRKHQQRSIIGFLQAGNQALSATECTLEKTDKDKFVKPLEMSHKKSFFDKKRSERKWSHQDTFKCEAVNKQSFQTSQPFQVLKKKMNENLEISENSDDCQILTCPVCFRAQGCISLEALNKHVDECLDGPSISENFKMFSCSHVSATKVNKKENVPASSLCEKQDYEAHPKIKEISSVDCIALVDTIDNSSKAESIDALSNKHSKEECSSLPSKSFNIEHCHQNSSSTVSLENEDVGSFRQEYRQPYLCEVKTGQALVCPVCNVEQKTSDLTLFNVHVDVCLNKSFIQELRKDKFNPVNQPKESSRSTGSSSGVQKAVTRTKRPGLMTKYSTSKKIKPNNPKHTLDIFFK
Protocol: The processing and repair of DNA interstrand crosslinks (ICL) in eukaryotic cells are extremely complex, potentially involving multiple DNA repair and damage tolerance pathways, including homologous recombination, nucleotide excision repair, translesion synthesis (TLS), and cell cycle checkpoints.
To that end, in a collaboration between the Oregon Health & Science University and the NIH Chemical Genomics Center a 1536-well high-throughput screen was developed. This fluorescent screen was assayed against the NIH Molecular Libraries Small Molecule Repository (MLSMR) to discover inhibitors of Pol Kappa.
NIH Chemical Genomics Center [NCGC]
NIH Molecular Libraries Probe Centers Network [MLPCN]
Assay Submitter (PI): Stephen Lloyd, Oregon Health & Science University
Three microliters of reagents (buffer in column 3 and 4 as negative control and 10 nM Pol kappa in columns 1, 2, and 5-48) were dispensed into a 1536-well black solid-bottom plate. Compounds (23 nL) were transferred via Kalypsys pin tool equipped with 1536-pin array. The plates were then incubated for 15 min at room temperature, and 1 uL substrate (50 nM final concentration) were then added to start the reaction and kinetically read twice at 0 min and 10 min on the Viewlux reader
% is scaled to controls: 0 for no effect and ±100 for the full control effect; potency is read from the fitted curve at half-maximal effect; tags tell the direction and shape of the fitted curve.

| SMILES | Potency | activity, negative = inhibition |
| --- | --- | --- |
| Cc1noc(C)c1C(=O)Nc1ccc(-n2ccc(C(F)(F)F)n2)cc1 | inconclusive: 89.1 µM [inhibitor, single point] | – |
| Cc1ccc(N(CC(=O)NC(C)(C)C)C(=O)CS(=O)CC(=O)Nc2ccc3c(c2)OCO3)cc1 (stereo not drawn) | inconclusive: 89.1 µM [inhibitor, single point] | – |
| CCCCCC/C=C\CCCCCCCc1cccc(O)c1C(=O)O | inconclusive: 39.8 µM [inhibitor, single point] | – |
| O=C1/C(=C\c2ccco2)SC(=S)N1C1CCS(=O)(=O)C1 (stereo not drawn) | inconclusive: 89.1 µM [inhibitor, single point] | – |
| CC(=O)Nc1cccc(NC(=O)CSc2cn(CC(=O)N(C(C)C)C(C)C)c3ccccc23)c1 | inconclusive: 89.1 µM [inhibitor, partial curve, poor fit] | – |
| CC(=O)Nc1ccc(NC(=O)COC(=O)c2ccccc2OCc2cccc(Br)c2)cc1 | – | inactive: -6.31% |
| O=C(NCc1ccccc1)C1(C(F)(F)F)C/C(=C\CCO)CCCO1 (stereo not drawn) | inconclusive: 89.1 µM [inhibitor, partial curve, poor fit] | – |
| N#C/C(=C\c1ccc(C(=O)O)cc1)S(=O)(=O)c1cc(Br)ccc1Br | inconclusive: 100 µM [inhibitor, single point] | – |
| N#CC(C#N)=Cc1cnc(N2CCN(c3ccccc3)CC2)s1 | inconclusive: 89.1 µM [inhibitor, single point] | – |
| COc1ccc(NC(=O)c2ccc3c(SCC(=O)O)c4c(nc3c2)CCCC4)c(OC)c1 | inconclusive: 89.1 µM [inhibitor, single point] | – |
| O=C(C[n+]1ccccc1Cl)c1ccc2c(c1)CCCC2 | inconclusive: 100 µM [inhibitor, single point] | – |
| Cc1cc(C)c(C)c(S(=O)(=O)N2CCC(C(=O)N(C)Cc3nc4ccccc4c(=O)[nH]3)CC2)c1C | – | inactive: -13.7% |
| Cn1c(=O)c2c(nc(Br)n2Cc2nnc(N)s2)n(C)c1=O | inconclusive: 89.1 µM [inhibitor, single point] | – |
| Cc1cccc(N/N=C/c2ccc(O)c(O)c2O)c1 | inconclusive: 79.4 µM [inhibitor, single point] | – |
| O=c1c2ccccc2oc2ccc(-c3ccoc3)cc12 | inconclusive: 79.4 µM [inhibitor, partial curve, poor fit] | – |
| CC(=O)c1ccc(Nc2nc3c(S(=O)(=O)c4ccccc4)nnn3c3ccc(Cl)cc23)cc1 | – | inactive: 0.257% |
| COc1ccc(N2CCN(c3nc(=S)n(-c4ccccc4)c(C)c3C(C)=O)CC2)cc1 | – | inactive: -7.48% |
| Cc1ccc(NC(=O)CSc2ccc(-c3ccco3)nn2)c(C)c1 | – | inactive: -10% |
| CC(C)=CCC/C(C)=C/COc1c2ccoc2cc2oc(=O)ccc12 | – | inactive: 4.31% |
| COCCCNC(=O)c1ccc2c(=O)n(CC3CCCO3)c(=S)[nH]c2c1 (stereo not drawn) | – | inactive: -25% |
| CCOC(=O)CNS(=O)(=O)c1ccc(F)cc1Br | – | inactive: -32.2% |
| O=C(N/N=C\C=C\c1ccco1)c1cncc(Br)c1 | active: 89.1 µM | – |
| O=C(CCN1C(=O)/C(=C/C=C/c2ccccc2)SC1=S)Nc1nccs1 | – | inactive: -7.62% |

| SMILES | Potency | activity, negative = inhibition |
| --- | --- | --- |
| Cc1cccc(NC(=O)C(=O)NCCc2sc(-c3ccccc3)nc2C)c1C | – | inactive: -3.59% [at 60.1 µM] |
| Cc1ccc(C)c(NC(=O)CSc2sc3c(O)cc(=O)[nH]c3c2C#N)c1 | inconclusive: 56.2 µM [inhibitor, partial curve, poor fit] | – |
| COc1ccc(CCn2c(O)cc3nn(-c4nc5ccccc5s4)c(=O)c-3c2C)cc1 | active: 22.4 µM | – |
| COc1cc(/C=C/c2nc(-c3ccccc3O)n[nH]2)cc(OC)c1OC | inconclusive: 89.1 µM [inhibitor, partial curve, poor fit] | – |
| Cc1noc(C)c1NC(=O)N(C)C[C@@H]1Oc2ccc(NC(=O)C3CCCCC3)cc2C(=O)N([C@@H](C)CO)C[C@H]1C | – | inactive: -14.3% |
| CCc1cccc(NC(=O)C2Cc3ccccc3N2C(=O)c2ccccc2)c1 (stereo not drawn) | – | inactive: -16.6% [at 60.1 µM] |
| C=C1c2c(Cl)ccc(O)c2C(O)=C2C(=O)[C@]3(O)C(O)=C(C(N)=O)C(=O)C(N(C)C)C3C(O)C12 (stereo partly drawn) | active: 1.58 µM | – |
| COc1cc2c(NC3CCN(C)CC3)nc(N3CCCN(C)CC3)nc2cc1OCC1CCCCN1 (stereo not drawn) | inconclusive: 50.1 µM [inhibitor, partial curve, poor fit] | – |
| Cc1cc(NCc2ccccc2Cl)n2cnnc2n1 | – | inactive: -10% |
| Cc1cc(N)c2cc(NC(=O)/C=C/c3ccccc3Cl)ccc2n1 | – | inactive: -24.8% |
| Cc1cccc(C)c1NC(=O)/C(C#N)=C/c1ccc(-c2ccc(C(=O)O)cc2)o1 | inconclusive: 89.1 µM [inhibitor, partial curve, poor fit] | – |
| CSc1ncc(C(=O)Nc2cccc(C)c2C)c(-c2ccccc2)n1 | – | inactive: 5.32% |
| CC(=O)NS(=O)(=O)c1ccc(NC(=O)/C=C/c2ccc(C)o2)cc1 | inconclusive: 89.1 µM [inhibitor, single point] | – |
| CCCN(CCC)C(=O)CN1C(=O)CSc2ccc(S(=O)(=O)N3CCC(C)CC3)cc21 | – | inactive: -4.1% |
| Cc1oc(C(=O)O)cc1CSCc1ccoc1C(=O)O | inconclusive: 79.4 µM [inhibitor, partial curve, poor fit] | – |
| O=C(CSc1nc2nc(-c3cccs3)cc(C(F)(F)F)c2c(=O)[nH]1)Nc1ccc(F)c(F)c1 | inconclusive: 79.4 µM [inhibitor, single point] | – |
| COc1ccc(-n2nc(C(=O)NCC(=O)N3CCN(Cc4ccccc4)CC3)c3ccccc3c2=O)c(OC)c1 | – | inactive: -12.7% |
| CCOc1cc(C=NNC(=O)CCCC(=O)NN=Cc2ccc(O)c(OCC)c2)ccc1O | inconclusive: 89.1 µM [inhibitor, partial curve, poor fit] | – |
| CCn1c(SCC(=O)N/N=C/C(C)=C/c2ccco2)nnc1-c1ccccc1 | inconclusive: 89.1 µM [inhibitor, single point] | – |
| S=c1[nH]nc(COc2ccccc2)n1/N=C/c1ccccc1Cl | inconclusive: 79.4 µM [inhibitor, partial curve, poor fit] | – |
| O=[N+]([O-])c1cc(Br)cc(C=Nc2ccc3c(c2)OCO3)c1O | inconclusive: 89.1 µM [inhibitor, partial curve, poor fit] | – |
| COc1ccc(CCNC(=O)c2nnn(CC(=O)Nc3cccc(F)c3)c2N)cc1OC | inconclusive: 89.1 µM [inhibitor, partial curve, poor fit] | – |
| COc1cc(SC)ccc1C(=O)NCCOc1c(C)cc(C)cc1C | inconclusive: 10 µM [inhibitor, partial curve, poor fit] | – |

| SMILES | Potency | activity, negative = inhibition |
| --- | --- | --- |
| CC(=O)c1sc(C(=O)O)c(-c2ccco2)c1-c1ccco1 | active: 44.7 µM | – |
| O=c1[nH]c2cc3c(cc2cc1CN(Cc1ccccc1)Cc1nnnn1Cc1ccco1)OCCO3 | inconclusive: 79.4 µM [inhibitor, single point] | – |
| C=CCSC1=N/C(=C\c2cc(OC)c3c(c2)OCO3)C(=O)S1 | – | inactive: -20.8% |
| Cc1ccnc(NC(=O)CCC(=O)c2cccs2)c1 | inconclusive: 89.1 µM [inhibitor, single point] | – |
| COc1c(N2CCN(C(=S)NCc3ccccc3)C(C)C2)c(F)cc2c(=O)c(C(=O)O)cn(C3CC3)c12 (stereo not drawn) | inconclusive: 79.4 µM [inhibitor, partial curve] | – |
| SCc1nc2ccccc2[nH]1 | – | inactive: -12.1% |
| COc1ccc(COc2cc(-c3cccc(OC)c3)nc3ccc(NC(=O)c4ccccc4)cc23)cc1 | inconclusive: 44.7 µM [inhibitor, partial curve, poor fit] | – |
| CN(C)c1cc2c(Nc3ccc4c(cnn4Cc4ccccc4)c3)ncnc2cn1 | inconclusive: 33.6 µM [inhibitor, single point] | – |
| COc1cc(-c2ccc(N=Nc3ccc4c(S(=O)(=O)O)cc(S(=O)(=O)O)c(N)c4c3O)c(OC)c2)ccc1N=Nc1ccc2c(S(=O)(=O)O)cc(S(=O)(=O)O)c(N)c2c1O | active: 1.5 µM and active: 251 nM | – |
| C=C(CCC12O[C@H](C(=O)O)[C@@](O)(C(=O)O)[C@](C(=O)O)(O1)[C@H](OC(=O)/C=C/[C@@H](C)C[C@@H](C)CC)[C@H]2O)[C@@H](OC(C)=O)[C@H](C)Cc1ccccc1 | active: 3.55 µM | – |
| O=C(O)C1CCCC1 | active: 28.2 µM | – |
| CSCC[C@H](NC(=O)N1CCn2c1nc1ccccc12)C(=O)NCc1ccc(F)cc1 | inconclusive: 89.1 µM [inhibitor, single point] | – |
| COc1cc2nc(N3CCCN(C)CC3)nc(NC3CCN(C)CC3)c2cc1OC | – | inactive: -4.91% |
| O=C(COC(=O)/C=C/c1ccc(Br)o1)NC1CCCCC1 | active: 79.4 µM | – |
| COc1ccccc1C1(O)CCN(CCCn2c3ccccc3c3ccccc32)CC1 | – | inactive: -2.91% [at 60.1 µM] |
| COC(=O)c1ccc(NC(=O)CCc2nnc3ccc(NCc4ccco4)nn23)cc1 | inconclusive: 89.1 µM [inhibitor, single point] | – |
| O=C(C1CCN(S(=O)(=O)Cc2ccccc2)CC1)N1CCN(c2ccc(F)cc2)CC1 | – | inactive: 2.88% |
| CC(/C=N/NC(=O)c1cc(-c2ccc3ccccc3c2)n[nH]1)=C\c1ccco1 | inconclusive: 89.1 µM [inhibitor, single point] | – |
| Cc1ccc(OCC(=O)Nc2cc(NC(=O)COc3ccc(C)cc3)cc(C(=O)O)c2)cc1 | – | inactive: 0.336% |
| O=C1/C(=C\c2ccc(Br)o2)SC(=Nc2ccccc2)N1c1ccccc1 | inconclusive: 89.1 µM [inhibitor, partial curve, poor fit] | – |
| C=C(C)C(=O)Nc1ccc2c(c1)OCCOCCOCCO2 | active: 79.4 µM | – |
| O=C(O)CCCCCN1C(=O)/C(=C/c2cn(-c3ccccc3)nc2-c2cccs2)SC1=S | inconclusive: 56.2 µM [inhibitor, partial curve, poor fit] | – |
